Measured values reported in PubChem BioAssay AID1671188 (National Center for Advancing Translational Sciences (NCATS), 2021).
The whole screen tested about 100,000 compounds, of which about 250 (0.25%) were called active. The shares of active, inactive and inconclusive entries below differ from those in the screen. Calls follow the shape of the dose curve; as a rule, active = well fitted inhibition curve with a large enough effect; inconclusive = small, poorly fitted or top-dose-only effect; inactive = flat fitted curve, though single readings scatter. No potency is given beside an inconclusive call; the fits are too rough.

The compounds below were run against Alanine aminotransferase 2 (Homo sapiens) (UniProt Q8TD30) (assay: Primary qHTS assay for inhibitors of Glutamate pyruvate transaminase 2 (GPT2)). Settings: Recombinant GPT2, coupled pyruvate oxidase/HRP Amplex Red fluorescence; activity change, negative = inhibition: at 57.7 µM (top of the series) unless noted; series mostly up to 57.7 µM.
UniProt Q8TD30, sequence (Q8TD30 whole entry, looked up): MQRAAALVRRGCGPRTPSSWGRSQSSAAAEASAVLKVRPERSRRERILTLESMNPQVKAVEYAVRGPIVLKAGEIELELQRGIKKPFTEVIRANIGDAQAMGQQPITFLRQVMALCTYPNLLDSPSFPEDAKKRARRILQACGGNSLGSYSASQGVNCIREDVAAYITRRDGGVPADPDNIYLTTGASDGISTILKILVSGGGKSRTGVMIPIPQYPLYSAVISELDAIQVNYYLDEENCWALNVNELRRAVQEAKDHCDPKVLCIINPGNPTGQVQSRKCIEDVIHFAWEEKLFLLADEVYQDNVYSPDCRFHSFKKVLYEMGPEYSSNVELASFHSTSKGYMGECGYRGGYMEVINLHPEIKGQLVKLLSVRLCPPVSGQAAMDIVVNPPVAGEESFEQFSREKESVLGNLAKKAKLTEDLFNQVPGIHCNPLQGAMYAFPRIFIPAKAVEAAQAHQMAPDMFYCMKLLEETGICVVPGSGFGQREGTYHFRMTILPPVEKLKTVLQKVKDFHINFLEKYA
Summary of the method: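 Inhibition is scored from Amplex Red fluorescence generated when pyruvate oxidase and HRP act on pyruvate released by GPT2. Reactions contain 10ng/uL enzyme, 250uM a-KG and 2mM L-alanine and run 30 min at room temperature.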
% is scaled to controls: 0 for no effect and ±100 for the full control effect; potency is read from the fitted curve at half-maximal effect; tags tell the direction and shape of the fitted curve.
Also: nearly all actives have a fitted effect of over 60% in size.

Compound | activity change, negative = inhibition | Potency | outcome
CN1CC2(C1)C(=O)N(C)C(=O)[C@@H]1C[C@@H](O)CN12 | inactive: 4.37% [at 88.5 µM] | – | –
Nc1ccc(N)cc1 | – | inconclusive [inhibitor, single point] | –
CC1=C[C@H]2O[C@@H]3C[C@H]4OC(=O)/C=C/C=C/C(=O)OCC/C(C)=C/C(=O)OC[C@@]2(CC1)[C@]4(C)[C@]31CO1 | inactive: 1.82% [at 27.3 µM] | – | –
C1=C(c2cnc[nH]2)c2ccsc2CC1 | – | inconclusive [inhibitor, single point] | –
COc1ccccc1N1CCN(C[C@H]2CN3CC[C@H]2C[C@@H]3CNC(=O)Nc2cccc(SC)c2)CC1 | – | – | inactive
C=C[C@H]1CN2CC[C@H]1C[C@@H]2CNS(=O)(=O)c1ccc(NC(C)=O)cc1 | – | inconclusive [inhibitor, single point] | –
N[C@@H](Cc1ccc(Oc2cc(I)c(O)c(I)c2)c(I)c1)C(=O)O | inactive: 2.3% | – | –
O=C(Nc1ccc(Cl)cc1)N1C[C@@H]2C[C@H](C1)c1c(-c3ccccc3F)ccc(=O)n1C2 | – | inconclusive [inhibitor, full curve, poor fit] | –
CN[C@H]1[C@H](O)[C@H](O[C@@H]2[C@@H](O)[C@H](O[C@H]3O[C@H]([C@H](C)O)[C@@H](O)[C@H](O)[C@H]3N)[C@@H](N)C[C@H]2N)OC[C@@]1(C)O | – | inconclusive [inhibitor, partial curve, poor fit] | –
CCC1NC(=O)C2C(Cl)C(Cl)CN2C(=O)C(C(C)O)NC(=O)CC(c2ccccc2)NC(=O)C(CO)NC1=O (stereo not given) | inactive: 0.367% [at 17.1 µM] | – | –
CCOC(=O)[C@H]1CN(C(=O)c2ccno2)[C@]2(C)C(=O)N(CC3CC3)c3ccccc3[C@H]12 | – | inconclusive [inhibitor, single point] | –
COC(=O)C(Cl)C(=O)OC | – | inconclusive [inhibitor, single point] | –
C[C@@H](CN1CCC2(CC1)C(=O)NCN2c1cccc(F)c1)NC(=O)c1ccc(Br)cc1 | – | – | inactive
CNC(C)c1cccnc1 (stereo not given) | – | inconclusive [inhibitor, single point] | –
Clc1ccc(CCC(Cn2ccnc2)Sc2c(Cl)cccc2Cl)cc1 (stereo not given) | – | inconclusive [inhibitor, partial curve, poor fit] | –
CCn1cc(CN2CCN(C(=O)Cc3cccs3)CC2)ccc1=O | – | inconclusive [inhibitor, single point] | –
CC(C)(O)[C@@H]1C2OC(=O)[C@@H]1[C@]1(O)C[C@H]3O[C@]34C(=O)O[C@H]2[C@]14C (tested in a mixture with another compound) | – | inconclusive [inhibitor, partial curve, poor fit] | –
Cc1ccccc1OCC(=O)N1CCN(Cc2ccc(=O)n(C)c2)CC1 | – | inconclusive [inhibitor, full curve, poor fit] | –
CCn1cc(CN2CCN(C(=O)COc3ccccc3)CC2)ccc1=O | – | inconclusive [inhibitor, single point] | –
COc1cc2c(cc1OCC1CC1)NC(=O)C21CCN(c2ncc(C(C)C)cn2)CC1 | – | inconclusive [inhibitor, single point] | –

Compound | activity change, negative = inhibition | Potency | outcome
C#C[C@]1(O)CC[C@H]2[C@@H]3CCC4=CC(=O)CC[C@]4(C)[C@H]3CC[C@@]21C | – | inconclusive [inhibitor, full curve, poor fit] | –
O=c1ccc(-c2cccs2)c2n1C[C@H]1C[C@@H]2CN(S(=O)(=O)c2cccs2)C1 | – | inconclusive [inhibitor, partial curve, poor fit] | –
CC1CCCC(=O)CCC/C=C/c2cc(O)cc(O)c2C(=O)O1 (stereo not given) | inactive: 3.69% [at 27.3 µM] | – | –
CNC(=O)c1cc(C#N)cc(C)c1NC(=O)c1cc(Br)nn1-c1ncccc1Cl | inactive: 3.42% | – | –
CN1CCN(C(=O)Cc2c[nH]c3ncc(-c4cccc(Cl)c4)cc23)CC1 | – | inconclusive [inhibitor, partial curve, poor fit] | –
NC(N)=NOCC[C@H](N)C(=O)O | inactive: -20.7% | – | –
C/C=C(\C)C(=O)O[C@H]1[C@H](OC(C)=O)[C@]2(CO)[C@H](O)[C@H](O)[C@]3(C)C(=CCC4[C@@]5(C)CC[C@H](O[C@@H]6O[C@H](C(=O)O)[C@@H](O)[C@H](O[C@@H]7OC[C@H](O)[C@H](O[C@@H]8OC[C@H](O)[C@H](O)[C@H]8O)[C@H]7O)[C@H]6O[C@@H]6O[C@H](CO)[C@@H](O)[C@H](O)[C@H]6O)C(C)(C)C5CC[C@]43C)[C@@H]2CC1(C)C (stereo not given in full) | – | inconclusive [inhibitor, partial curve, poor fit] | –
Cc1ccc2c(n1)N(C)[C@H](CO)CCN(CC(C)C)C2 | inactive: 3.81% [at 88.5 µM] | – | –
COc1cc2c(cc1-c1cccnc1OC)NC(=O)C21CCN(C(C)=O)CC1 | – | – | inactive [at 88.5 µM]
CNCCc1ccc(O)c(O)c1 | – | inconclusive [inhibitor, full curve] | –
CCN1CCN(c2ccc(Cl)nn2)C(=O)C1 | – | inconclusive [inhibitor, single point] | –
Cc1nc(-c2ccccc2Br)cc([C@H]2CN3CC[C@H]2C[C@@H]3CNC(=O)NC2CCCCC2)n1 | – | – | inactive
CSc1ccc(-c2ccc(=O)n3c2[C@@H]2C[C@@H](CN(C(=O)Nc4cccc(F)c4)C2)C3)cc1 | – | inconclusive [inhibitor, full curve, poor fit] | –
COc1cc2c(cc1Oc1cccc(N(C)C)c1)NC(=O)C21CCN(c2ncccn2)CC1 | inactive: -6.31% | – | –
COC(=O)C1(C)CCC(=O)C2(C)c3c(O)cc(C(C)C)cc3C(O)C(OC(C)=O)C12 (stereo not given) | – | inconclusive [inhibitor, single point] | –
CC(Cc1ccc(O)cc1)NCC(O)c1cc(O)cc(O)c1 (stereo not given) | – | inconclusive [inhibitor, single point] | –
Cc1nc(-c2ccccc2)cc([C@H]2CN3CC[C@H]2C[C@@H]3CNS(=O)(=O)Cc2ccccc2)n1 | – | – | inactive
CN(N=O)c1ccc(O)c(O)c1 | – | active: 3.16 µM | –
CC(=O)c1ccc(NC(=O)OC[C@H]2C[C@@H]3CCN2C[C@@H]3c2cc(C3CCCC3)nc(-c3ccncc3)n2)cc1 | – | inconclusive [inhibitor, single point] | –
O=C(N1CCOCC1)N1CCN(c2ccc(Cl)cc2)CC1 | – | inconclusive [inhibitor, single point] | –

Compound | activity change, negative = inhibition | Potency | outcome
O=C(NCC[C@@H]1C[C@@H]2C=C[C@H]1C2)c1cn(Cc2ccccc2Cl)nn1 | – | inconclusive [inhibitor, single point] | –
CNCc1cccnc1 | – | inconclusive [inhibitor, single point] | –
OC1CCCCC1N1CCC(c2ccccc2)CC1 (stereo not given) | – | inconclusive [inhibitor, single point] | –
C/C=C(/C)C(=O)O[C@H]1[C@@H]2[C@H](C)C(=O)O[C@@H]2C[C@@H](C)[C@@H]2C=CC(=O)[C@]21C | – | inconclusive [inhibitor, single point] | –
COc1ccc(-c2cc([C@H]3CN4CC[C@H]3C[C@@H]4CNC(=O)N3CCOCC3)n(C)n2)cc1OC | – | inconclusive [inhibitor, single point] | –
C[C@H](N)[C@H](O)c1ccc(O)c(O)c1 | – | inconclusive [inhibitor, full curve, poor fit] | –
CC[C@H]1CN2CC[C@H]1C[C@@H]2CNC(=O)Nc1ccc(Oc2ccccc2)cc1 | – | inconclusive [inhibitor, single point] | –
CC[C@H]1CN2CC[C@H]1C[C@@H]2CNC(=O)Nc1ccc(C(C)(C)C)cc1 | inactive: 0.226% [at 88.5 µM] | – | –
CC[C@@H]1C[C@H]2CC[C@H](O2)[C@H](C)C(=O)O[C@@H](C)C[C@@H]2CC[C@@H](O2)[C@@H](C)C(=O)O[C@H](C)C[C@H]2CC[C@H](O2)[C@H](C)C(=O)O[C@@H](C)C[C@@H]2CC[C@@H](O2)[C@@H](C)C(=O)O1 | – | inconclusive [inhibitor, single point] | –
CC(C)CN1CCN(c2ccc(Cl)nn2)C(=O)C1 | – | – | inactive [at 88.5 µM]
COc1ccc(NC(=O)OC[C@H]2C[C@@H]3CCN2C[C@@H]3c2cc(C3CCCC3)nc(-c3ccncc3)n2)cc1 | – | – | inactive
COc1cc2c(cc1CCc1ccccc1)N(C(=O)c1c[nH]c3ccccc13)CC21CCN(C(C)=O)CC1 | inactive: -11.9% | – | –
C=C(C)[C@H]1CN[C@H](C(=O)O)[C@H]1CC(=O)O | – | inconclusive [inhibitor, single point] | –
CN(C)c1ccc(C(=O)NC[C@H]2C[C@@H]3CCN2C[C@@H]3CN2CCCCC2)cc1 | – | inconclusive [inhibitor, single point] | –
COCCOCCO | – | inconclusive [inhibitor, single point] | –
c1ccc2c(N3CCNCC3)cccc2c1 | – | inconclusive [inhibitor, partial curve, poor fit] | –
CC(C)[C@H]1C(=O)N[C@H](CO)Cc2c[nH]c3cccc(c23)N1C | – | active: 15.3 µM | –
Cc1nc(-c2ccc(F)cc2)cc([C@H]2CN3CC[C@H]2C[C@@H]3CNC(=O)C2CC2)n1 | inactive: 2.87% [at 88.5 µM] | – | –
C[C@H](NC(=O)Cc1cc(F)cc(F)c1)C(=O)N[C@@H]1N=C(c2ccccc2)c2ccccc2N(C)C1=O | inactive: -2.58% | – | –
Cc1c(N)nc([C@H](CC(N)=O)NC[C@@H](N)C(N)=O)nc1C(=O)N[C@H](C(=O)N[C@@H](C)[C@H](O)[C@@H](C)C(=O)N[C@@H](C(=O)NCCc1nc(-c2nc(C(=O)NCCC[S+](C)C)cs2)cs1)[C@@H](C)O)C(O[C@H]1O[C@H](CO)[C@H](O)[C@@H](O)[C@@H]1O[C@H]1O[C@H](CO)[C@@H](O)[C@H](OC(N)=O)[C@H]1O)c1cnc[nH]1 (stereo not given in full) | – | inconclusive [inhibitor, full curve, poor fit] | –
